Among all 420,000 compounds or so, about 64,000 (15%) were called active. The shares of active, inactive and inconclusive entries below differ from those in the screen. Calls follow the shape of the dose curve; as a rule, active = well fitted inhibition curve with a large enough effect; inconclusive = small, poorly fitted or top-dose-only effect; inactive = flat fitted curve, though single readings scatter. No potency is given beside an inconclusive call; the fits are too rough.
Assay: qHTS for Inhibitors of human tyrosyl-DNA phosphodiesterase 1 (TDP1): qHTS in cells in absence of CPT; also: nearly all actives have a fitted effect of over 55% in size
Conditions: DT40 Tdp1-/- hTDP1 cells, no CPT, ATP luminescence, 48 h; activity change, negative = growth inhibition: at 46.2 µM (top of the series) unless noted
In short: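 Stably hTDP1-transfected Tdp1-null chicken DT40 cells were treated with library compounds minus camptothecin and grown for at least 48 hr at 37 °C, after which cellular ATP was quantified by luminescence.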
% is scaled to controls: 0 for no effect and ±100 for the full control effect; potency is read from the fitted curve at half-maximal effect; tags tell the direction and shape of the fitted curve.

SMILES | Potency | activity change, negative = growth inhibition
CCCOC1CCCN(C(=O)c2cc(COc3c(F)cccc3F)on2)C1 (centres undefined) | inconclusive [inhibitor, single point] | 
COc1cccc(-c2cn3nc(C)c(C)nc3n2)c1 | inconclusive [inhibitor, partial curve] | 
Cc1cc2c(SCC(=O)NC3CCCCC3)ncnc2s1 | inconclusive [inhibitor, single point] | 
CCOC(=O)c1cc(-c2cccs2)nc2onc(C)c12 |  | inactive: 0.182%
CCc1cccc(NC(=O)Cn2c(=O)n(CC(=O)NCCc3ccccc3)c(=O)c3ccccc32)c1 | inconclusive [inhibitor, single point] | 
C=CCC[C@H](Cc1ccc(F)cc1)C(=O)OC[C@@H](NC(=O)[C@H](CC=C)CC(=O)NCCO)C(C)(C)C | inconclusive [inhibitor, single point] | 
O=C1CC(c2ccccc2)c2c(n3ncnc3[nH]c2=O)N1 (centres undefined) |  | inactive: 2.93%
CC(C)CCn1c(=O)c2sccc2n2c(CCCC(=O)NCCc3ccccc3)nnc12 | active: 14.6 µM | 
COc1cc(SC)ccc1C(=O)Nc1ccc2c(c1)CCC2 |  | inactive: -87.5%
CC(=O)NNS(=O)(=O)c1ccc(-c2cc(C(F)(F)F)n(C)n2)s1 |  | inactive: 0.489%
CN(C)c1nc(NCc2ccccc2)nc(N/N=C/c2ccc3c(c2)OCO3)n1 | active: 16.4 µM | 
CCOCCCNC(=S)NCCNc1nc2ccc(C)cc2cc1C#N | inconclusive [inhibitor, single point] | 
NS(=O)(=O)c1ccc(NC(=S)N2CCC(Cc3ccccc3)CC2)cc1 | inconclusive [inhibitor, partial curve] | 
Cn1ccnc1SCC(=O)c1ccc(Br)cc1 | inconclusive [inhibitor, partial curve] | 
CCOC(=O)C1CCN(S(=O)(=O)c2cccc(-c3cn4cc(Cl)ccc4n3)c2)CC1 | inconclusive [inhibitor, partial curve] | 
O=C(c1ccco1)N1CCN(C(=O)c2ccco2)C1=S | active: 5.8 µM | 
CN(Cc1cnccn1)C(=O)C1CCC(=O)N(CCc2ccc(Cl)cc2)C1 (centres undefined) |  | inactive: 5.5%
Cc1ccc(NC2=C(Cl)C(=O)N(C3CCCCC3)C2=O)cc1 |  | inactive: -56.1%
CCN(Cc1ccccc1)Cc1nnnn1Cc1ccccc1 | inconclusive [inhibitor, single point] | 
COC(=O)C[C@@H]1C=C[C@H](NC(=O)c2ccccc2)[C@@H](CO)O1 |  | inactive: 4.87%
Cc1ccc(S(=O)(=O)c2nc(-c3ccccc3)oc2SCC(=O)NCC2CCCO2)cc1 (centres undefined) | inconclusive [inhibitor, single point] | 
COc1cccc(CNC(=O)c2oc3c(c2C)-c2nn(Cc4cccc(Cl)c4)cc2CC3)c1OC | active: 20.6 µM | 
CC(C)(C)CN1CCN(Cc2nc(-c3ccc(F)cc3)cs2)CC1CCO (centres undefined) | active: 20.6 µM | 
c1ccc(-c2csc3nnc(SCc4ccc5c(c4)OCO5)n23)cc1 | inconclusive [inhibitor, partial curve] | 
CC(C)N(C)C1CCN(S(=O)(=O)c2ccc3[nH]c(=O)ccc3c2)CC1 |  | inactive: 17.8%

SMILES | Potency | activity change, negative = growth inhibition
CN1C(=O)/C(=C/c2ccccc2OCc2ccccc2F)NC1=S |  | inactive: 0.0778%
COc1ccc(OC)c(/C=C/C(=O)N(C)CC(=O)Nc2ccc(C)cc2)c1 | active: 10.3 µM | 
Cc1ccc(OCC(=O)O)c(O)c1 |  | inactive: -8.39%
COc1ccc(-c2cnnn2-c2ccc(NC(=O)/C=C/c3ccc(OC)c(OC)c3)cc2)cc1 | inconclusive [inhibitor, single point] | 
COc1ccc(NC(=O)Cn2c(SCc3ccc(F)cc3)nc3cccnc32)cc1OC | active: 2.31 µM | 
Cc1ccc(OCCn2c(CCNC(=O)C(C)C)nc3ccccc32)cc1 | inconclusive [inhibitor, single point] | 
CCOc1ccc(N(CC(=O)Nc2nccs2)S(=O)(=O)c2c(C)noc2C)cc1 |  | inconclusive: -35.4% [inhibitor]
Cc1cc(NC(=O)CSc2nc3c(cc2C#N)CCCCC3)no1 | inconclusive [inhibitor, single point] | 
COc1cc2ncnc(NCc3ccc(Cl)cc3)c2cc1OC | inconclusive [inhibitor, single point] | 
Cc1cccc(NC(=O)CCC2CCN(C(=O)C3CC=CCC3)CC2)c1 (centres undefined) | active: 11.6 µM | 
CCN(CC)S(=O)(=O)c1cccc(C(=O)N[C@H](C(=O)Nc2nc3ccc(F)cc3s2)C(C)C)c1 | active: 14.6 µM | 
Cc1nnc(SCC(=O)NC2CCCCCC2)n1C(C)C |  | inactive: 14.1%
COc1ccc(C(=O)c2ccc(Br)cc2)c(OC)c1OC |  | inactive: -24.7%
Cc1occc1C(=O)N1CCCC(N2CCN(c3cccc(C(F)(F)F)c3)CC2)C1 (centres undefined) | active: 13 µM | 
Cc1c2ccccc2nc2c(F)c(NCCO)c(F)c(F)c12 | inconclusive [inhibitor, single point] | 
Cc1cc(NC(=O)COC(=O)c2ccccc2S(=O)(=O)N(C)c2ccccc2)no1 | inconclusive [inhibitor, single point] | 
CC(=O)OCCn1c(=O)c2cc3c(=O)n(CCOC(C)=O)c(=O)c3cc2c1=O | inconclusive [inhibitor, single point] | 
COCC(=O)N1CCC(c2nc3ccccc3[nH]2)CC1 |  | inactive: -11.5%
CCOC(=O)C1=CCN(S(=O)(=O)c2ccccc2Cl)C1c1cccc(C)c1 (centres undefined) | inconclusive [inhibitor, single point] | 
CCOP(=O)(OCC)C(NC(C)=O)C(=O)c1ccccc1 (centres undefined) | active: 3.66 µM | 
Cc1cc2c(SCC(=O)Nc3ccccc3O)ncnc2s1 |  | inconclusive: -30% [inhibitor]
CCCCCn1nnnc1-c1nc2cc(C)c(C)cc2[nH]c1=O | inconclusive [inhibitor, single point] | 
COC(=O)[C@]12CCCCC=C1N(Cc1ccco1)C(=O)[C@H](CC(=O)NCCCCc1ccccc1)C2 | active: 16.4 µM | 
CC(C)(C)OC(=O)N1CC2Cc3[nH]c(=O)ccc3C(C2)C1 (centres undefined) |  | inactive: -14.5%
